From PubChem BioAssay AID2546 (National Center for Advancing Translational Sciences (NCATS), 2010)
The whole screen tested about 310,000 compounds, of which about 11,000 (3.5%) were called active. This list was built around the results that the source calls inconclusive (neither active nor inactive); the mix of calls is not that of the screen. Calls follow the shape of the dose curve; as a rule, active = well fitted inhibition curve with a large enough effect; inconclusive = small, poorly fitted or top-dose-only effect, or effect the other way; inactive = flat fitted curve, though single readings scatter. Potencies of inconclusive entries are left out as doubtful fits.

Test: VP16 counterscreen qHTS for inhibitors of ROR gamma transcriptional activity;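 also: Gal4-VP16 expression switched on by copper sulfate through the metallothionein promoter; nearly all actives have a fitted effect of over 50% in size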
Settings: Drosophila S2 Gal4-VP16 UAS-luciferase, luminescence, 20 h; activity, negative = inhibition: at 53.6 µM (top of the series)
% is scaled to controls: 0 for no effect and ±100 for the full control effect; potency is read from the fitted curve at half-maximal effect; tags tell the direction and shape of the fitted curve.

| Compound | Potency | activity, negative = inhibition |
| --- | --- | --- |
| COCC(=O)Nc1nnc(-c2ccc(C(C)(C)C)cc2)s1 | inconclusive [inhibitor, single point] | – |
| Fc1ccc(N/N=C(/c2ccccc2)c2ccccn2)cc1 | inconclusive [inhibitor, single point] | – |
| Cc1sc2ncn(CC(=O)N3CCN(c4ccccc4F)CC3)c(=O)c2c1S(=O)(=O)N1CCOCC1 | – | inactive: -6.27% |
| CC(C)CN1C(=O)C(=O)N(CC(=O)Nc2cc(Cl)ccc2Oc2ccccc2)C1=O | – | inactive: 10.6% |
| Cc1cccc(NC(=S)N/N=C/c2cccn2Cc2ccc(F)cc2)c1 | active: 2.24 µM | – |
| Cc1ccc(C=Nc2ccc(N(C)C)cc2)o1 | inconclusive [inhibitor, single point] | – |
| CN(c1ccc(O)cc1)S(=O)(=O)c1ccc2ccccc2c1 | – | inactive: -16.3% |
| Cc1cc(C(C)(C)C)cc(S(=O)(=O)Nc2cccc(C(=O)O)c2)c1C | – | inactive: 8.79% |
| CN(CC(=O)Nc1cccc(F)c1)C(=O)c1cccc(S(=O)(=O)N2CCN(c3ccccc3)CC2)c1 | inconclusive [inhibitor, single point] | – |
| COc1ccc(-n2c(-c3ccc(Br)cc3)c[n+]3c2CCCCC3)cc1 | inconclusive [inhibitor, single point] | – |
| CCCCC(=O)Nc1nnc(-c2ccc(OC)cc2)s1 | inconclusive [inhibitor, single point] | – |
| Cc1cccc(C)c1OCC(=O)NNC(=S)NC(=O)C1CC1 | inconclusive [inhibitor, single point] | – |
| CCn1cc(/C=N\NC(=O)C2(C)CC2(Cl)Cl)c(C)n1 (stereo unspecified) | – | inactive: -5.05% |
| CC(C)=CCC/C(C)=C/CO/N=C1/C[C@@H](O)[C@@H](O)[C@@H]2[C@@H]3C(=O)N(C[C@@H]4CCCO4)C(=O)[C@H]3CC[C@@H]12 | – | inactive: 3.42% [at 10 µM] |
| Cc1csc(N/N=C/c2c(F)cccc2Cl)n1 | inconclusive [inhibitor, single point] | – |
| COc1ccc(S(=O)(=O)N2CCOC2CNC(=O)C(=O)NCCc2ccc(OC)c(OC)c2)cc1 (stereo unspecified) | inconclusive [inhibitor, single point] | – |
| COC(=O)c1[nH]c2cccc(OC)c2c1NC(=O)CN1CCN(c2cccc(OC)c2)C(C)C1 (stereo unspecified) | – | inactive: 0.127% [at 0.365 µM] |
| CSc1nc(NCc2ccco2)c2ccccc2n1 | – | inactive: 1.33% |
| CC(C)(C)OC(=O)NCc1ccc(CNC(=O)c2[nH]cnc2C(=O)N[C@@H](Cc2ccccc2)C(=O)OCc2ccccc2)cc1 | inconclusive [inhibitor, single point] | – |
| CCC(=O)N(C1=C(NC(C)C)C(=O)c2ccccc2C1=O)C(C)C | inconclusive [inhibitor, single point] | – |
| Cc1cccc(N2CCN(C(=O)C3CCC(=O)N(C4CC4)C3)CC2)c1C (stereo unspecified) | – | inactive: -1.5% |
| CN(C)/C=N/C(=S)Nc1ccc(F)cc1 | inconclusive [inhibitor, single point] | – |
| CC(C)C[C@H](NC(=O)C1CC(=O)N(c2ccc3c(c2)OCCO3)C1)C(=O)N1CCCCC1 (stereo partly specified) | – | inactive: 4.76% |
| CCCn1nnnc1NC(=O)c1ccc2ccccc2c1 | active: 1 µM | – |
| Cc1cc2oc3c(c(=O)c2cc1C)C(c1cccc(Br)c1)N(Cc1ccco1)C3=O (stereo unspecified) | – | inactive: -3.16% |
| Cc1cccc(-c2sc(Nc3ccccc3)n[n+]2-c2ccc(F)cc2)c1 | – | inactive: -5.71% |

| Compound | Potency | activity, negative = inhibition |
| --- | --- | --- |
| COc1cc(/C=C(\C#N)C(=O)NCC2CCCO2)c([N+](=O)[O-])cc1OC (stereo unspecified) | inconclusive [inhibitor, single point] | – |
| Oc1ccc(CCNc2ncnc3ccc(Cl)cc23)cc1 | active: 6.31 µM | – |
| CC(C)(C)c1ccc(OC(=O)Nc2ccc(O)c(C(=O)O)c2)cc1 | active: 1.26 µM | – |
| C/C(=N\NC(=O)c1ccccc1F)c1ccc2c(c1)Nc1ccccc1S2 | inconclusive [inhibitor, single point] | – |
| CC1CN(C(=S)NC(=O)c2ccc([N+](=O)[O-])cc2)CC(C)O1 (stereo unspecified) | active: 1.26 µM | – |
| CCOC(=O)C1(Cc2cccc(OC)c2)CCCN(C(=O)c2cc(C)oc2C)C1 (stereo unspecified) | inconclusive [inhibitor, single point] | – |
| Cc1ccc(C(C)C)c(OCCNC(=O)c2ccccc2O)c1 | inconclusive [inhibitor, single point] | – |
| Cc1ccc2nc(NC(=O)C(NS(=O)(=O)c3cccc4nsnc34)C(C)C)sc2c1 (stereo unspecified) | inconclusive [inhibitor, single point] | – |
| Cc1ccccc1NC(=O)c1ccc(F)c(S(=O)(=O)N2CCN(c3ccccn3)CC2)c1 | inconclusive [inhibitor, single point] | – |
| Cc1ccc(-c2noc(CNS(=O)(=O)c3ccccc3)n2)cc1 | – | inactive: -15.1% |
| S=C(Nc1ccccc1)Nc1ccccc1-n1cccc1 | active: 15.8 µM | – |
| O=C1c2cccc(Sc3ccccc3)c2C(=O)c2c(Sc3ccccc3)cccc21 | – | inactive: 24% |
| COc1ccc(C(=O)c2no[n+]([O-])c2C(=O)c2ccc(OC)cc2)cc1 | inconclusive [inhibitor, single point] | – |
| CC(=O)Nc1nnc(-c2c(-c3ccccc3Cl)noc2C)o1 | active: 17.8 µM | – |
| O=c1nc2ccc(Cl)cn2c2ccc(S(=O)(=O)N3CCOCC3)cc12 | – | inactive: -4.5% |
| COc1ccc(/C=C2/SC(=S)N(CCCC(=O)N3CCN(C)CC3)C2=O)cc1 | active: 2.51 µM | – |
| CCC(Sc1nncn1C)C(=O)Nc1cc(C)on1 (stereo unspecified) | – | inactive: -3.7% |
| O=C(CCC(=O)NCCCc1ccccc1)NCCCc1ccccc1 | inconclusive [inhibitor, single point] | – |
| CCCCCCCCCCNC(=O)C(=O)Nc1ccccn1 | inconclusive [inhibitor, single point] | – |
| COCCn1c(=S)[nH]c2cc(C(=O)N3CCc4ccccc43)ccc2c1=O | inconclusive [inhibitor, single point] | – |
| CC(=O)Nc1ccc(NC(=O)CSc2nc(C)nc3sc(C)c(C)c23)cc1 | – | inactive: 0.379% |
| O=C(NC(=S)Nc1ccc(N2CCOCC2)cc1)c1ccccc1 | inconclusive [inhibitor, partial curve, poor fit] | – |
| O=c1ccc2ccccc2[nH]1 | active: 12.6 µM | – |
| COc1cc(/C=C/C(=O)O)cc(S(=O)(=O)Nc2ccccc2C(=O)NCCc2ccccc2)c1OC | – | inactive: -14% |
| CCC(C(=O)OCC(=O)Nc1cc(Cl)cc(Cl)c1)c1ccccc1 (stereo unspecified) | inconclusive [inhibitor, single point] | – |
| CCOC(=O)N1CCN(CCC(=O)Nc2cc(C)ccc2C)CC1 | – | inactive: -3.09% |

| Compound | Potency | activity, negative = inhibition |
| --- | --- | --- |
| Cc1c2cnn(CC(=O)N3CCOCC3)c(=O)c2c(C)n1Cc1ccccc1F | inconclusive [inhibitor, single point] | – |
| COc1ccc(OC)c(/C=N/NC(=S)NCCc2ccccc2)c1 | active: 11.2 µM | – |
| O=C(NC(=S)Nc1ccc(N2CCOCC2)c(Cl)c1)c1cncc(Br)c1 | active: 0.562 µM | – |
| CCc1cc2c(=O)c(-c3cscn3)coc2cc1O | inconclusive [activator, partial curve] | – |
| CCNc1nc(NC(C)C)nc(SCCOc2ccc(C)cc2)n1 | inconclusive [inhibitor, single point] | – |
| Clc1cccc(/C(Cc2nc3ccccc3[nH]2)=N\Nc2ccccc2)c1 | inconclusive [inhibitor, single point] | – |
| O=C(O)COc1ccc(/C=N/NC(=O)c2cccc3ccccc23)cc1 | – | inactive: -0.547% |
| CCn1cnc2cc(NCc3ccc(N(C)C)cc3)ccc21 | – | inactive: -3.65% [at 10 µM] |
| O=S(=O)(NCc1ccccn1)c1ccc(Cl)c(C(F)(F)F)c1 | inconclusive [inhibitor, single point] | – |
| COCCNC(=S)N/N=C1\CC(C)CC(C)(C)C1 (stereo unspecified) | active: 3.55 µM | – |
| Cc1ccc(C2CC2c2n[nH]c(=S)n2-c2ccc(Cl)cc2)cc1 (stereo unspecified) | active: 10 µM | – |
| Cc1cccc(S(=O)(=O)c2c(N)n(-c3ccccc3)c3nc4ccccc4nc23)c1 | – | inactive: -7.16% |
| N=C(N)SCc1cccc2ccccc12 | inconclusive [inhibitor, single point] | – |
| FC(F)(F)c1cccc(Cc2noc(CN3CCC(c4ccncc4)CC3)n2)c1 | inconclusive [inhibitor, single point] | – |
| O=C(Cc1ccccc1)NC1CCN(C(=O)NCc2ccccc2)CC1 | inconclusive [inhibitor, single point] | – |
| CCCCCCCCCCCCCCCC[n+]1ccc(/C=N/O)cc1 | active: 7.08 µM | – |
| C/C(=N\NC(=O)CNc1cccc(C(F)(F)F)c1)c1ccc(Br)cc1 | inconclusive [inhibitor, single point] | – |
| COc1ccccc1NC(=O)c1ccccc1NC(=O)c1cccs1 | inconclusive [activator, single point] | – |
| CCNC(=S)N/N=C/c1cc(Br)cc(Br)c1OC | active: 2.51 µM | – |
| C=C(c1ccc(O)cc1)c1ccc(O)cc1 | inconclusive [activator, single point] | – |
| O=C(Nc1nc2ccccc2s1)c1ccccc1 | inconclusive [inhibitor, single point] | – |
| Cc1cccc(Cc2c(C)nc3c(C(=O)N4CCN(Cc5ccc6c(c5)OCO6)CC4)cnn3c2C)c1 | inconclusive [inhibitor, single point] | – |
| COc1cccc(/C=N/NC(=O)c2[nH]nc3c2CCc2ccccc2-3)c1O | active: 0.794 µM | – |
| O=C(N/N=C/c1ccc([N+](=O)[O-])o1)c1ccccc1-n1cccc1 | inconclusive [inhibitor, single point] | – |
